Measurements as given in the supplement of paper PMC5655136.
These are enrichments in a pooled selection; single values are uncertain.

Tested on: NB7
Assay: fold depletion of shRNA, plasmid library share / infected cells without Dox share (9 days) (ratio); higher = more depleted after infection (more toxic, leaky expression from a Tet-inducible vector; NB7 is a neuroblastoma line without caspase-8)
Description: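 Pooled lethality screen in NB7 neuroblastoma cells infected with Dox-inducible pTIP shRNA libraries. The libraries tile every 21-mer of the Venus, CD95L or CD95 ORF / 3'UTR; each hairpin is the 21-nt sense sequence + CTCGAG loop + antisense. Cells were cultured 9 days with or without 100 ng/ml Dox. shRNA representation was measured by deep sequencing of the genomic inserts, normalised to the total reads per subpool and averaged over technical replicates. Fold depletion is the plasmid library share / infected cells without Dox share (mean of 2 biological replicates), and the -Dox/+Dox share ratio is the mean of 4 replicate pairings; higher values mean more depletion (toxicity).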

[1] = shRNA pool: CD95 ORF + CD95 3'UTR + Venus libraries
[2] = shRNA pool: CD95L ORF + CD95L 3'UTR + Venus libraries
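Also: shRNA barcodes quantified by deep sequencing of PCR amplicons from cellular DNA, counts expressed as percent of each subpool, ratio averaged over two biological duplicates.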

| Sequence | fold depletion of shRNA [1] | fold depletion of shRNA [2] |
| --- | --- | --- |
| ACACTCACCAGCAACACCAAG | 1.13 |  |
| ACACTCATCTTAGTGCCTGAG |  | 2.78 |
| ACACTGTGACCCTTGCACCAA | 1.18 |  |
| ACAGAAAACATGCAGAAAGCA | 1.71 |  |
| ACAGAAAGGAAAACCAAGGTT | 3.11 |  |
| ACAGAAGGAGCTGGCAGAACT |  | 2.16 |
| ACAGACAAAGCCCATTTTTCT | 2.18 |  |
| ACAGCAGAACAGAAAGTTCAA | 1 |  |
| ACAGCATCATCTTTGGAGAAG |  | 1.14 |
| ACAGCATGTGTATTTCCAGTG |  | 1.71 |
| ACAGCCACAACGTCTATATCA | 2.35 | 1.48 |
| ACAGGCACCGAGAATGTTGTA |  | 1.56 |
| ACAGGCCTGTGTCTCCTTGTG |  | 1.21 |
| ACAGTCAATGGGGATGAACCA | 3.54 |  |
| ACAGTGGCAATAAATTTATCT | 0.791 |  |
| ACAGTTCTTCCCTGTCCAACC |  | 4.27 |
| ACAGTTGAGACTCAGAACTTG | 2.79 |  |
| ACAGTTTATTGGTGTCATATT | 1.17 |  |
| ACATAGAAAACATTAAATTAT | 0.966 |  |
| ACATAGAACTCTGGGCTGCCA |  | 1.98 |
| ACATAGCAATGGTAAAATCAT | 0.801 |  |
| ACATATGATTCTGTAGTATGA | 1.11 |  |
| ACATATTAGGAAAATATGGGT |  | 0.669 |
| ACATATTTGTAGATTTTTAAT | 0.679 |  |
| ACATCCTGGGGCACAAGCTGG | 1.8 | 4.34 |

| Sequence | fold depletion of shRNA [1] | fold depletion of shRNA [2] |
| --- | --- | --- |
| ACATCGAGGACGGCGGCGTGC | 0.282 | 0.304 |
| ACATGAACCAAGTGGACCTTG |  | 2.85 |
| ACATGAAGCAGCACGACTTCT | 1.98 | 5.97 |
| ACATGAGGAACTCTAAGTATC |  | 0.819 |
| ACATGCAGAAAGCACAGAAAG | 1.59 |  |
| ACATGCATTTGAGGTCAAGTA |  | 0.829 |
| ACATGGAAATATCACCAAAAA | 0.647 |  |
| ACATGGAATCATCAAGGAATG | 1.07 |  |
| ACATGGCTTAGAAGTGGAAAT | 1.01 |  |
| ACATGGTCCTGCTGGAGTTCG | 1.16 | 1.13 |
| ACATGGTTGTGACCTGAGGAT |  | 10.5 |
| ACATGTAATAAAAAGTATATG |  | 0.455 |
| ACATGTCATGAACCCATGTTT | 2.2 |  |
| ACATTAAATTATAATGTTTGA | 0.671 |  |
| ACATTACTAGTGACTCAGAAA | 0.799 |  |
| ACATTGATTAAAGATCTCAAA | 1.05 |  |
| ACATTTTATCATTTATTAGCG | 1.21 |  |
| ACCAAAAAATACTTAATAGTC | 0.476 |  |
| ACCAAAAGGCAAGACTGCCCT | 0.898 |  |
| ACCAAACTTTTTTTGTAACTC | 1.05 |  |
| ACCAAATGTGAACATGGAATC | 1.31 |  |
| ACCAAGGTTCTCATGAATCTC | 1.23 |  |
| ACCAAGTGCAAAGAGGAAGGA | 0.826 |  |
| ACCAAGTGCAGATGTAAACCA | 1.5 |  |
| ACCAAGTGGACCTTGAGACCA |  | 0.956 |

| Sequence | fold depletion of shRNA [1] | fold depletion of shRNA [2] |
| --- | --- | --- |
| ACCACAGCACAGGCCTGTGTC |  | 2.38 |
| ACCACAGGGTTCAAAATGTCT |  | 3.89 |
| ACCACATGAAGCAGCACGACT | 1.77 | 1.4 |
| ACCACCACCACCGCCACCGCC |  | 27.7 |
| ACCACCACCGCCACCGCCACC |  | 11.1 |
| ACCACCCTGGGCTACGGCCTG | 1.62 | 2.2 |
| ACCACCGGCAAGCTGCCCGTG | 0.514 | 0.418 |
| ACCACCTAAAGAACTTCCATT | 1.72 |  |
| ACCACTACCACCTCCGCCGCC |  | 6.07 |
| ACCACTACCAGCAGAACACCC | 1.64 | 2 |
| ACCACTACCTGAGCTACCAGT |  | 3.23 |
| ACCACTATTGCTGGAGTCATG | 1.4 |  |
| ACCACTGCCTCCACTACCGCT |  | 1.45 |
| ACCAGACTGCGTGCCCTGCCA | 0.926 |  |
| ACCAGCAACACCAAGTGCAAA | 0.931 |  |
| ACCAGCAGAACACCCCCATCG | 0.776 | 1.5 |
| ACCAGCCAGATGCACACAGCA |  | 0.973 |
| ACCAGGTGTTCTACACTCATC |  | 3.23 |
| ACCAGTCCGCCCTGAGCAAAG | 1.11 | 2.63 |
| ACCAGTGCTGATCATTTATAT |  | 0.913 |
| ACCATATTTCTAAACTTTGTT | 0.672 |  |
| ACCATCTTCTTCAAGGACGAC |  | 10.3 |
| ACCCAAATAGGAGTGTATGCA | 1.4 |  |
